In all, about 2,300 sequences were measured (“median log2 fold change of GCK-ALFA target abundance (FLAG IP / Myc IP barcode read proportion)”: median about 0.095, lowest 2% from about -0.47 on). This is one part of the list.
B1: LC3A_free_8_2479 (protein)
chain: MNQKLVDKATELLEELEEEVRKKAKELGLEELDILLLELEIGSVIQEIYDNSDKSPEEIYKTTKEGLKRIIEEAKKISEELAKLVKEKAEEILKELEKLL
B2: LC3A_free_46_2346 (protein)
chain: VLAEIEIDLLHEDEEVLKKAVEEIVKEAKKIAEKYNLEVEIKVEIEKLEDGSYFARIEIKLKGESKEDVEKAVNELINKIDEIAKKYDVAAIISYEIEEE
B3: LC3A_free_8_2458 (protein)
chain: NKDELVTTISNLYDEFEEKLEAKLKELGFSQEDINYISVLIGEAEMAVMETAEDDPSKTLEVAKEEFEEIIKELAKLSPELAKFAKELAEEVLKKIEEAL
B4: LC3A_28_1205 (protein)
chain: SKSKENAEKALEEAKKAAEEGEEKVIEVKVEGGITEEETKYVIEKIEKIAEIAAKNPKISIVIDISGGVAEEHKNYIIDKAEELEKKYPNVNIIIALEEE
B5: LC3A_28_1303 (protein)
chain: SALAAQFAAARAEVEAAAARGEPVVVTIDITAEQAETELDTILAQLRALGEVASRAPGATIIVDLDEDVDPENRTRILDTMEEIEERYPNVTVIAAIEDK
B6: LC3A_13_331 (protein)
chain: TITIEATTAEELREKSFAALEAHPGETINITVTVTNEEEAEAVAEVLGEIIRKAAEKGNSLNITIKGKEDLVNYVAVEAGAEIYEHIDKVDVTITTEVIP
B7: LC3A_28_891 (protein)
chain: MNPLDSAREALEKVKKAVAEGSTEPLVLEVDVPSDEEELEKLLELLEELAEEASKLKGVTIILDISEDVSQELRDKVIDHAEELEEKYPNVTVIIALPES
B8: LC3A_3_1781 (protein)
chain: AEARIAELLAALEAAGASPETIAAVRAAAEALRARGYEEALATFVEEMRRLLGLPDEIRLAFAQEVLRLIEENDLSEEELTEEIRRLARLARLEAEIEEL
B9: LC3A_23_624 (protein)
chain: KVKLTVEVDFIGTEEETEENIKKIKEKVEEIKKKYEDEILEYKLEIEREKLPDGRILVHVKITIITNGNEEKAKEIKDELVDFIDKNIPDGVISYEIEKL
B10: LC3A_free_0_2099 (protein)
chain: MTTVVEVLGIIDNENDKEAAEAIAEELKKLGKKLSEEKGWKVTVELKKVNGSYVITVTIEGKGMSIEEGLEIADEIADKIERLAKEHGVEVTIYTSVYEE
B11: LC3A_147_407 (protein)
chain: YRTEVDIDILSKNAEEEIVEFFEKLKKELEEKGYKVELEIEVEELEGGETYIRVRIIVEAETKEEAEEAANFILDEIDKLEEELKDKILGSIISVEIIDE
B12: LC3A_free_46_2312 (protein)
chain: VKANITIDLLHEDKEVLEKAVKELVEKIKEIAKKYNLKVEIKVEFSKDEDGSHFARIEVTLTGETKEDIEAAVNEIIDAIDEIAEKYGVSYIISVEIIDE
B13: LC3A_free_8_2474 (protein)
chain: KVQELVNEITKLLDELEEKTTKKAKELGVDPLKILELELEIGAAKADIISASDKSIEEVRKIVEEEMEEILKIAKELGEEIAKLVEETKKKILELIEKAE
B14: LC3A_28_701 (protein)
chain: SAIEEQLARAEEIVEEAVAAGEDALIEITITPETTAEDVDLILERVREMAERMSEVGKLYVVVDVEAGVAQENITRLADGLDEIEEEIPTVSAVIALDED
B15: LC3A_147_448 (protein)
chain: MKYEIDVDALFRNDRELAEELAEKLKEIAEKYGGEVEVELREEQVSPTTTEYYLDVTITFEDEEKAKEAEKEISELLDETAKAHPDKFLGAILSFEEVEE
B16: LC3A_147_485 (protein)
chain: MEVKIDLLVKGKETVEELKKKMEETKKELEKEGIKVKLEIKVEEIEPGVYYVEITAKIEAPTKEEEKKAAQKVIDTVEEFEEENKDKVLGSLISVEETEK
B17: LC3A_28_1041 (protein)
chain: SALEADAEAALAEAERQLAEGDEAVVTLTVEDLPTEEAAAIVRAFLERLRELSREHGGKKIHVVIDYDGDQETLDALADIAEEAEEEDPNLTVIIAYDDK
B18: LC3A_28_993 (protein)
chain: SALEEQLEAALAEAKAAAAAGEPTVITIKVPGSANQEDIELVIEKLEEIAEILKDVPGSAIVIDLDGKLDQELRDLIIDKAEEIEEKYPNVTVIIALDEE
B19: LC3A_3_1763 (protein)
chain: MEEFIEEAAKRLKEAGASEELIEVASEALRLLLERGLEETAEEFVEALLELLKKSEELALDLARDVLELLRTSTLSPEELAAAVREEINAALAEAEIEEL
B20: LC3A_147_499 (protein)
chain: YKVVVDIDILMKNKPELVEKLVEEIKKELEKKGFKVEYEIKHEKVDENTVYSHITITIEAPTKEEAEEAANLVIDMIDEFEEKNKEDILGSLISVEIEEV
B21: LC3A_free_39_2186 (protein)
chain: SAAEAEAALAELLALAAEEGEETKALAEELVALIGRRLEHLKRLLELARRLKEEGVDLREALREALALARELAAQGKSPEEIAEAVLEHLQDRIDLIPID
B22: LC3A_free_8_2510 (protein)
chain: NKEALAKTASTKFDEIEELVEKLGKEDGLSELEILDILLVIGAEHQDVLDAIEDGPEAALKKAEEAKKEILKELKPLSEESRKKIEEKLDELIEELKKII
B23: LC3A_17_543 (protein)
chain: KEELKEKLEKLLKELEKLVKELEKYDPEKAKELKKKLKEAKKLLKEGKLEEAAKLLAEAAREAAEAFEELEPEKGVEASVLSMEASGLELEAEGILLKLE
B24: LC3A_3_1361 (protein)
chain: MEELIEETLAFLREAGKSEETLEAVRETLLALKERGYEEAAKTFVELLRELKDLPDELLLAFAEDVLEAVTKEDLSEEELIEFIKEEAAVARHEAEIIEL
B25: LC3A_17_592 (protein)
chain: SEEIKKEIEELLKELKKLIKKMKELGIPEAKEIEKLLKEAEKALKEGDLKKAAELLAKAADLAADALEEKEEELGSEASVLEMEANGLELRAIGILLKLD
B26: LC3A_3_1490 (protein)
chain: REELLERMRAVLEARGASPEQIAEVLEAAERLLELGYEETVETLIELFEANPDLDPLDIVTAVLITLEVAEEEDLSEEELVERAREIFENVREIEALDEN
B27: LC3A_3_1813 (protein)
chain: LDEELKETLELLKKAGASEETLKAVKEAAEALKEKGYENSLKTFLELMRKNKDLPSELLLAFAKDVLELIKTSDLDEESMTEEIKKIASTYENEAEIIEL
B28: LC3A_3_1768 (protein)
chain: MEEKVEEAKKKLKEAGADEETIETAAEAVKLLLERGLEETAEEFLKTLLELLKKSKELARDLAKDVLEILKTSDLSPEEIAEKVREEIKNYLLESEIIEL
B29: LC3A_28_902 (protein)
chain: SPAIASAEAALAEVKAAVAAGDQEPLVLEVKAPSKEEDVEKFLELLTQIAKEASQLKGVSIIIDIDESVSEENRNKIIDHAEELEKKYPNVTIIIALPEE

biological target: MAP1LC3A, Q9H492; test: median log2 fold change of GCK-ALFA target abundance (FLAG IP / Myc IP barcode read proportion) (log2 ratio); each designed protein is fused to an ALFA-tag nanobody in HEK293 cells to bring the named protein to FLAG-tagged glucokinase (GCK); Myc marks an untargeted standard; higher = target protein stabilised (more abundant); details: target protein: 3xFLAG-MCP-GCK-ALFA reporter; HEK293 landing pad (RPLP)
Procedure, shortened: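 The readout is target abundance, the per-binder median log2 ratio of FLAG to Myc barcode read proportions. It came from HEK293 landing-pad cells carrying a recombined ALFA-nanobody-fused binder library, induced with 2 μg mL^−1 doxycycline and transfected with a plasmid for a FLAG-tagged target and a Myc-tagged standard. After 48 h, lysates were immunoprecipitated with anti-FLAG and anti-Myc, and circular RNA barcodes were reverse transcribed, amplified and sequenced. Each barcode needed a proportion of at least 10^−7 in both replicates and each binder at least 3 barcodes per replicate, a pseudocount of 10^−6 was added, and the replicates were pooled.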

Binder	median log2 fold change
B1	0.28
B2	-0.0805
B3	0.179
B4	0.106
B5	0.266
B6	0.289
B7	-0.154
B8	0.24
B9	-0.0862
B10	-0.379
B11	-0.124
B12	-0.0148
B13	0.318
B14	-0.383
B15	-0.322
B16	0.0781
B17	0.0383
B18	-0.291
B19	0.21
B20	-0.0118
B21	0.302
B22	0.0552
B23	0.312
B24	0.16
B25	-0.636
B26	-0.342
B27	0.292
B28	0.25
B29	-0.247
